# Experimental data: PubChem BioAssay AID492947 (National Center for Advancing Translational Sciences (NCATS), 2010)
# Among all 330,000 compounds or so, about 80 (0.02%) were called active. The shares of active, inactive and inconclusive entries below differ from those in the screen. Calls come from the whole dose curve; as a rule, active = well fitted activation curve with a large enough effect; inconclusive = small, poorly fitted or top-dose-only effect; inactive = flat fitted curve, though single readings scatter. Potencies of inconclusive entries are left out as doubtful fits.
# Target: Beta-2 adrenergic receptor (Homo sapiens) (UniProt P07550)
# Experiment: qHTS assay of beta-arrestin-biased ligands of beta2-adrenergic receptor; note: nearly all actives have a fitted effect of over 65% in size
# Details: beta-arrestin recruitment to beta2AR, cell-based reporter; series mostly up to 46.1 µM
# Text: NIH Molecular Libraries Probe Production Network [MLPCN]
# NIH Chemical Genomics Center [NCGC]
# PI: Bryan Roth and Bob Lefkowitz
# The concept of biased agonism is an emerging concept of molecular pharmacology which proposes that seven transmembrane receptors (7TMRs) or G protein-coupled receptors (GPCRs), exist in multiple signaling conformations and complexes and that ligands (either agonists or antagonists) can induce signaling biased responses for distinct signal transduction cascades.
# Furthermore, accumulating evidence over the last decade has drawn attention to a novel function of beta-arrestins as signal transducers that scaffold various signaling molecules upon activation of 7TMRs. […] This beta-arrestin-biased signaling presumably leads to distinct physiological outcomes from those by G protein activation.
# Additionally, the active receptor conformations which […] on this beta-arrestin signaling are likely different from those activating G protein signaling
# The goal of this screening project will be to discover and optimize novel beta-arrestin-biased ligands for beta2-AR signaling. A luminescent cell-based assay for beta2-AR-mediated agonism, known as the Tango assay, has been validated in which ligand binding of a recombinant beta2-AR and subsequent recruitment of a recombinant beta-arrestin lead to the release of the transcriptional activator tTA, which upregulates transcription of a tTA-responsive luciferase gene. […] Compounds were screened as a concentration-titration series that ranged from 46 microM to 0.6 nM.
# NCGC Assay Protocol Summary:
# Tango cells were dispensed into white, solid, tissue-culture-treated 1536-well plates at 1500 cells/well in DMEM, containing 1% fetal bovine serum (FBS). Then, 23 nL of compounds or DMSO were delivered to each well using a pin tool. Plates were incubated at 37 degrees C, 5% CO2 for 18 hr. Then 2.5 uL luminescent substrate mix (in-house prepared: 150 mM Tris-Cl, pH 7.6, 3 mM MgCl2, 1% Triton X-100, 5 mM DTT, 0.5 mM CoA, 0.15 mM ATP, 0.44 mM D-luciferin, final concentrations) was added to each well. Plates were then incubated for 15 minutes at room temperature, and subsequently measured on a ViewLux plate reader for luminescent signal using a clear filter with a 10 second exposure and 2x binning. The %Activity was determined from the corrected luminescence values.
# Concentration-response curves were fitted to the signals arising from the resulting luminescence. The concentration-effect curves were then classified based on curve quality (r2), response magnitude and degree of measured activity, and compounds were subsequently categorized based on their curve class.
# Keywords: biased agonism, beta2-AR, beta-arrestin, GPCR, 7TMR, Tango, luminescence, MLSMR, MLPCN, NIH Roadmap, qHTS, NCGC
# Potency is the fitted concentration of half-maximal effect; tags give direction and shape of the fitted curve.
# Sequence of UniProt P07550 (P07550 whole entry, looked up): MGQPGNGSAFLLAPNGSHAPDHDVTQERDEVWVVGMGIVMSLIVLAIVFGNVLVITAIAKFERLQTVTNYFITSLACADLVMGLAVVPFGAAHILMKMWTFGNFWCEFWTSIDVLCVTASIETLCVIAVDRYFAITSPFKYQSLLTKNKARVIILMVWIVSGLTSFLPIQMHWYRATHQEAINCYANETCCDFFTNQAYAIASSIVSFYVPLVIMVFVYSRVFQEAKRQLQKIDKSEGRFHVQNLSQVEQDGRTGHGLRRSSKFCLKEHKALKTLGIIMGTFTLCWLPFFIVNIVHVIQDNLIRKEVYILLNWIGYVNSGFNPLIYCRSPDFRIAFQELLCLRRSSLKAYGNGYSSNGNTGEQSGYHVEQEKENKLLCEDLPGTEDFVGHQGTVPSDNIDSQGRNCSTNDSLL
row,Compound,Potency
1,Oc1c(CN2CCN(c3ccccc3)CC2)cc(Br)c2cccnc12,"inconclusive [activator, partial curve]"
2,CN1/C(=C/C2CC(=O)NC2=O)C(C)(C)c2ccccc21 (stereo not drawn),inactive
3,CCOc1ccc(NC(=O)CC)cc1,inactive
4,S=C(Nc1ccccc1Cl)N(Cc1ccccc1)Cc1ccccn1,"inconclusive [rising, single point]"
5,COc1cc(C(=O)O/N=C2\C=CC(=O)C(C)=C2)cc(OC)c1OC,inactive
6,COc1cc(/C=N/NC(=S)NC2CC3C=CC2C3)cc(OC)c1OC (stereo not drawn),"inconclusive [rising, single point]"
7,CCCCC(=O)Nc1ccccc1C(=O)OCC(=O)c1ccc2c(c1)OCCO2,inactive
8,O=C(NCC1CCCO1)C1CCCN(S(=O)(=O)c2ccc(Cl)cc2)C1 (stereo not drawn),inactive
9,O=[N+]([O-])c1ccc(Cl)c(C2Nc3cccc4cccc(c34)N2)c1,"inconclusive [rising, full curve, poor fit]"
10,O=C(CCn1c2c(c3ccccc31)CCCC2)NNC(=O)c1ccccc1C(=O)O,"inconclusive [rising, single point]"
11,COc1ccccc1CNC(=S)NCc1ccc(F)cc1,inactive
12,CCc1nnc(NC(=S)Nc2ccccc2)s1,"inconclusive [rising, single point]"
13,CCCN(CC(=O)Nc1ccc(Cl)cc1Cl)C(=O)/C=C/c1ccco1,"inconclusive [rising, single point]"
14,Cc1cc(C(=O)COC(=O)Cc2n[nH]c(=O)c3ccccc23)c(C)n1-c1ccc2c(c1)OCCO2,"inconclusive [rising, single point]"
15,Cc1cccnc1NC(=S)Nc1ccc(Br)cc1Cl,"inconclusive [rising, single point]"
16,CCN1CCN(c2cc(-c3ccccc3)nc3cc(-c4cccc(F)c4)nn23)CC1,inactive
17,COc1ccc(O)c(/C=N/Nc2nc(Nc3ccccc3)nc(-n3nc(C)cc3C)n2)c1,"inconclusive [rising, full curve, poor fit]"
18,CN(Cc1ccccc1)CC(O)COc1ccc(CNCCCOc2cccnc2)cc1 (stereo not drawn),"inconclusive [rising, single point]"
19,CC(C)c1ccc(O)c(NC(=O)c2cccnc2)c1,inactive
20,O=C(/C=C/c1ccc(N2CCCCC2)c([N+](=O)[O-])c1)c1ccc(S(=O)(=O)N2CCCC2)cc1,"inconclusive [rising, single point]"
21,COc1ccc(CN=C2NN=C(c3ccccc3)CS2)cc1,"inconclusive [rising, single point]"
22,CCN(CC)S(=O)(=O)c1ccc(C)c(NC(=S)Nc2cccc(S(=O)(=O)N3CCCCCC3)c2)c1,"inconclusive [rising, single point]"
23,CC1=NN(c2ccccc2)C(=O)/C1=C/C=C/c1ccccc1,"inconclusive [activator, partial curve]"
24,CCOC(=O)c1c(CSc2ccccc2)n(C)c2cc(Br)c(OCC(O)CNC(CO)(CO)CO)cc12 (stereo not drawn),"inconclusive [rising, single point]"

row,Compound,Potency
1,O=c1[nH]c(CSc2ccccn2)nc2c1cnn2-c1ccccc1,"inconclusive [rising, single point]"
2,COc1cc(NS(=O)(=O)c2ccc(C)cc2)c2ncccc2c1,inactive
3,CC1(C)Cc2c(sc3[nH]c(=S)n(Cc4ccccc4)c(=O)c23)CO1,"inconclusive [rising, single point]"
4,COc1ccc(CC(=O)Nc2nc(-c3ccc(OC)c(OC)c3)cs2)cc1OC,inactive
5,COc1ccc(NC(=S)NCc2cccs2)cc1,inactive
6,O=C(Nc1ccccc1N1CCCCC1)c1ncoc1-c1ccc(F)cc1,inactive
7,Cn1c(=S)c2[nH]c(SCCN3CCCC3)nc2n(C)c1=O,active: 15.8 µM
8,O=C(Nc1ccc(Cl)cc1)/C(=C/c1cccc(O)c1)c1nc2ccccc2s1,"inconclusive [rising, single point]"
9,CCOC(=O)n1c(=O)oc2cc(S(=O)(=O)N3CCCCC3)ccc21,"inconclusive [activator, full curve]"
10,CCN(CC)c1cc(C(F)(F)F)nc(-c2ccccn2)n1,"inconclusive [rising, single point]"
11,CC(CN1CCOCC1)OC(=O)c1ccc(Br)cc1 (stereo not drawn),"inconclusive [rising, single point]"
12,COC(CN(C(=O)CCl)C(C(=O)NC1CCCC(C)C1C)c1ccc(C)cc1)OC (stereo not drawn),"inconclusive [rising, single point]"
13,CCN(CC)C(=O)COc1c(-c2ccco2)oc2ccccc2c1=O,inactive
14,O=c1n(Cc2ccccc2Cl)nc2n1-c1ccccc1SC2,inactive
15,COc1ccc(OC)c(N2C(=O)CC(Cc3ccc(C)cc3)C2=O)c1 (stereo not drawn),inactive
16,N#CC(C(=O)C1CCCCC1)c1nc2ccccc2[nH]1 (stereo not drawn),inactive
17,CCc1nnc(NC(=O)C2CCN(c3nccc(C)n3)CC2)s1,inactive
18,C=C(C)c1cccc(C(C)(C)NC(=O)NC(c2ccccc2)c2ccc(OC)cc2)c1 (stereo not drawn),"inconclusive [activator, partial curve]"
19,COc1cccc(NC(=S)NN=C2CCCCCC2)c1,"inconclusive [rising, single point]"
20,Cc1cc(Cl)n2ncc(-c3ccccc3)c2n1,"inconclusive [rising, full curve, poor fit]"
21,COc1cc(/C=C2\CC(C(C)(C)C)C/C(=C\c3cc(OC)c(OC)c(OC)c3)C2=O)cc(OC)c1OC (stereo not drawn),"inconclusive [activator, full curve]"
22,COc1ccc(OC)c(NC(=O)Cn2c(CCC(=O)O)ccc2-c2ccccc2)c1,"inconclusive [rising, single point]"
23,NC(=O)c1sc2nc(-c3ccco3)ccc2c1N,"inconclusive [rising, single point]"
24,C/C(=N\NC(=S)NC(C)C)c1ccco1,"inconclusive [rising, single point]"
